Results taken from paper PMC12136788.
This is one part of the list.

T1: UNK ZnF1-3 (human, UniProt Q9C0B0 31-174)
T1 sequence: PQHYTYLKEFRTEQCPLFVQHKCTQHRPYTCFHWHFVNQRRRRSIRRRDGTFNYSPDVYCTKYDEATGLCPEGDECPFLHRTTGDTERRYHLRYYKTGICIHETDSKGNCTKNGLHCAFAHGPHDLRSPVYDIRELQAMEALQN

B1: chr2:91395433:91395434:+_ENSMUSG00000040549_ENSMUST00000099716|mus_mus|motif|central (ssRNA)
RNA: GGGAGUUCUACAGUCCGACGAUCUGGCUUAAGUGAGAUGAUUUUGGAACCAAAUUCACUUAAGGCUUUCCUCAGUGUUUCGGUACAGGCCACUAUGAUCUUGGGGUUCUUGUUAUCCAGGCCCUUCAGAAGCUCUUCUUGUACCAACAGAGGAUUGAGCAUCA
B2: chr14:89343726:89343727:+_ENSG00000165533_ENST00000346301|hu_hu|motif|central (ssRNA)
RNA: GGGAGUUCUACAGUCCGACGAUCAGACAUAGUGCUUUUUUCCCCUUGCAUAAUGCUGCUUCAUAAGAACAUAUGUGGUCGGAGGAACAAUCAGAGCAUAGCAAAAUGCUGCCUUAAUUGUUUAAUUAAAUGUUGUGUGUCCACCAACAGAGGAUUGAGCAUCA
B3: chr1:130485734:130485735:-_ENSMUSG00000045382_ENSMUST00000052172|mus_mus|mus_mus_mus_hu_False|38_38 (ssRNA)
RNA: GGGAGUUCUACAGUCCGACGAUCGAUGAAGGAGUCGAUGCUGAUCCCAAUGUAGUAAGGCAGCCAACAGGCGAAGAAAGCCAGGAUGAGGAUGACUGUCGUCUUGAGGGCCUUGCGCUUCUGGUGGCCCUUGGAGUGUGACAGCAACAGAGGAUUGAGCAUCA
B4: 141391498_141392571_85_CDS_ENSG00000113552_ENST00000311337|human|control|control (ssRNA)
RNA: GGGAGUUCUACAGUCCGACGAUCGUACUUCUCUGGCCCUGGGUUAAACUGGAUGAUGCGGUUCCUGAUGUAUUUAGCCGCCCACUCGCUCGCCUGAGAAUAGUGCUCCAGGAUGAUGAGCUUCAUCUUGUCACGGACGCCUCCCAACAGAGGAUUGAGCAUCA
B5: chr1:10024197:10024198:-_ENSMUSG00000025917_ENSMUST00000027050|mus_hu|FALSE|FALSE (ssRNA)
RNA: GGGAGUUCUACAGUCCGACGAUCGAGCAUCUGAGUACUAACAUCAAUCCCAGAAAGCCAGCAGCCAUAGCCAGGGUGGCUAUGAUACCACCCGAUUGCAUUUUCAAGGCGGCCAACCUGUUUUGCAUUUUCUAUGUAUGCAGCCAACAGAGGAUUGAGCAUCA
B6: chr7:75932113:75932114:+_ENSG00000106211_ENST00000248553|hu_hu|hu_hu_hu_mus_False|18_28 (ssRNA)
RNA: GGGAGUUCUACAGUCCGACGAUCCUGCGACCACUCAUCGGGCAACCGGGGCACCCCGAAAGCUUGAUCGAAGAGGCGGCUGUGUGCAGGGUACCAGUCCCGGAAUGCCCAGCUGGGGCCCCGCAGGAGCAGCGAGAAGGGCACCAACAGAGGAUUGAGCAUCA
B7: chr22:19452774:19452775:-_ENSG00000070010_ENST00000399523|hu_hu|hu_hu_hu_mus_False|58_68 (ssRNA)
RNA: GGGAGUUCUACAGUCCGACGAUCCUUCUCAUUGUAGUUGAUAGCAAUCACAUCUCCAGUCGUCAGACAGGCAAAGUUCCUAAGUGCAUUUUCUAAUACCGCUUUAGGGUUGGUAAUAUCCAGGAAGUCUGGGCUCUGAGGCUGCAACAGAGGAUUGAGCAUCA
B8: chr17:35975056:35975057:-_ENSMUSG00000001525_ENSMUST00000001566|mus_hu|FALSE|FALSE (ssRNA)
RNA: GGGAGUUCUACAGUCCGACGAUCCCCUCAUGGUUAAAAUUUAAUUUUUUUGCUCGCCUCAAGGUAUGUAUGGGGCAAGAAAAUAAGUAAUUUUUUUUCUCCGCAGGUCGCAGGCUGGAAGGUUGGAAUGCGCCCCAGAGGCUGCAACAGAGGAUUGAGCAUCA
B9: chr7:44244176:44244177:+_ENSG00000106636_ENST00000223369|hu_mus|hu_hu_hu_mus_False|58_78 (ssRNA)
RNA: GGGAGUUCUACAGUCCGACGAUCACUGUCGCUCCGGACGUAGACAUGGCAAAGAUAGUCUUGUUCUUUGACAGAAGCUCUAGUGCCUUUCCCCGAGCGUUCCACAAUCAGUUGACUUGUAAAGGUCAUGAAUUCCUGCACACUCAACAGAGGAUUGAGCAUCA
B10: chrX:140365796:140365797:-_ENSMUSG00000031285_ENSMUST00000033642|mus_mus|motif|central (ssRNA)
RNA: GGGAGUUCUACAGUCCGACGAUCCUUCUCAUUACUUAAUGCCUGCAAGGUUCUGGUUCUGUAGAAGCUACAGUGGGCACGGUGAGUGGGACUUGGAAGUCCAUUCAUCCGUGACCCUCUCAUAUUUCUAGAUGCUUUGUCUCGCAACAGAGGAUUGAGCAUCA
B11: chr8:95500983:95500984:-_ENSG00000164944_ENST00000437199|hu_hu|hu_hu_hu_mus_True|68_108 (ssRNA)
RNA: GGGAGUUCUACAGUCCGACGAUCAGAAGGAUUUUUACGAGUAAAGGACCGUACAUGACGGCCUCUAACCACUGCCUCACUAACAAACUUUCCUCUCGAGCCUCCACUGCCGCUAUUUGUACUAGCCCAGGACGGUCCCAGGCCCAACAGAGGAUUGAGCAUCA
B12: chr3:176767854:176767855:-_ENSG00000177565_ENST00000430069|hu_hu|hu_hu_hu_mus_False|8_38 (ssRNA)
RNA: GGGAGUUCUACAGUCCGACGAUCGACAUCCUUGUUACUGGGCACGUCCUGCCCUCCUUCCCGUAUGCAGUGUCUAAGCACGAGCUGCGUAGGGCCACUGGUGCUGUUCUCACUGAGGUUCCAGAUUCUUGCUGUUGAGUCUCCCAACAGAGGAUUGAGCAUCA
B13: chr22:32879901:32879902:+_ENSG00000100225_ENST00000397426|hu_mus|hu_hu_hu_mus_False|18_38 (ssRNA)
RNA: GGGAGUUCUACAGUCCGACGAUCCUCUUCCAUACUCAUGGCAUCCUGAAUUGACUCAGCUUCAACAUUUUGACUAGGCCCUUCCAUACUGUCAUCAUUCCAAACACCAAAUGGGGUUGCCUGUCCUUGGGAUGAAUCAGUCCCCAACAGAGGAUUGAGCAUCA
B14: chr2:155843326:155843327:+_ENSMUSG00000005881_ENSMUST00000006035|mus_mus|FALSE|FALSE (ssRNA)
RNA: GGGAGUUCUACAGUCCGACGAUCCUGGUCACCCAGGAGCCCAUUGGCAACCUUCUCGUGCCUGGUCACGGAGAACUGGUUAGUCCUCAGCACCUCCCCGUCCACCUUCAUGUACACUGUGGGCACCACCUUCACAAAGUACUGCAACAGAGGAUUGAGCAUCA
B15: chr1:17152557:17152558:+_ENSMUSG00000025777_ENSMUST00000026879|mus_hu|FALSE|FALSE (ssRNA)
RNA: GGGAGUUCUACAGUCCGACGAUCAUACCCACUACCCAGCCAAUACCUAGACAUGCUAGUGAUUAGCUGGGACAUUCACCUAAAUGCCACUUAUGUGUAUGAAGAGGGCUACAGAUGCCACCCUUUCUACCUCCCACUGACUGGCAACAGAGGAUUGAGCAUCA
B16: chr12:69233606:69233607:+_ENSG00000135679_ENST00000462284|hu_mus|FALSE|FALSE (ssRNA)
RNA: GGGAGUUCUACAGUCCGACGAUCCUAAUUUGGGGGUCAUAUAGUUAGAAAUAUAAAAUUCUAUUUUUGUGAGCAGGUCAGCUAGUUGAAGUAAGUUAGCACAAUCAUUUGGAUUGGCUGUCUGCACACUGGGCAGGGCUUGUUCAACAGAGGAUUGAGCAUCA
B17: chr3:135125919:135125920:+_ENSMUSG00000078578_ENSMUST00000106291|mus_hu|FALSE|FALSE (ssRNA)
RNA: GGGAGUUCUACAGUCCGACGAUCCUCUGGCACUAGGGGGUCAUCUGGGUUUGGAUCACAUAGCAGUGAACAAAUGGAUAAAAGAACUUUAGAAAUUGUUAAAGCAGGCGACCACUGUGAUCUUAGAAUAUCGAGACAAAUGCUCAACAGAGGAUUGAGCAUCA
B18: chr16:17389515:17389516:-_ENSMUSG00000041720_ENSMUST00000036161|mus_mus|motif|central (ssRNA)
RNA: GGGAGUUCUACAGUCCGACGAUCUCAGAUUCAAUGAGAAAAAUGCCCAAUGCAAUCACUGCAUCUCUCCGUCUUUCAUCGGGUUGGAAGAUUCCAUGAAAAUCUACUGGGCACAUGCAAAGCAGCUUUUGAACCUGAGACAGGCAACAGAGGAUUGAGCAUCA
B19: chr10:1038518:1038519:+_ENSG00000107937_ENST00000545048|hu_hu|hu_hu_hu_mus_False|1_1 (ssRNA)
RNA: GGGAGUUCUACAGUCCGACGAUCCAGUCUGUCAUGGUAAUUCUGUUGAGUAAAUUUGACUUUUCUCAUAUAAAAAUGUCGAAUCCGAUGAAUUUGAUAAUGUUUAUGAAUAACCGUUGGAGUCUUUCGUUGAGUCUUCGACAACAACAGAGGAUUGAGCAUCA
B20: chr5:128440902:128440903:+_ENSG00000066583_ENST00000173527|hu_mus|hu_hu_hu_mus_True|48_48 (ssRNA)
RNA: GGGAGUUCUACAGUCCGACGAUCUUGAACGGUGCUGCCAAGUCCUUUGGGGUAUUGUUCCGUUAUGAUAACUGGAAUCCCUAAGAUCCGGGCCCCUUGCAACAGUCUCUGUCCCACACUAAUGAUGUCCCCAAAGUAUUUGAUCAACAGAGGAUUGAGCAUCA
B21: chr16:20679341:20679342:+_ENSMUSG00000045983_ENSMUST00000044783|mus_mus|motif|central (ssRNA)
RNA: GGGAGUUCUACAGUCCGACGAUCUGGGGGUGGUGAUGGGGUUGGAGAAGGCGACGAAGGCUGAGAUUCUGUGCCAGGGCGGUGCUCUGGGCCAGGCAGUCCUGGCCGCCCCCCAAUGGCUGCUCCCUGCGACCGGUCAUCUGGCAACAGAGGAUUGAGCAUCA
B22: chr12:42180722:42180723:-_ENSMUSG00000036295_ENSMUST00000043884|mus_hu|mus_mus_mus_hu_True|8_18 (ssRNA)
RNA: GGGAGUUCUACAGUCCGACGAUCCUGUAGGAGAAGAAUCUGUGUGUUAGCUGGCAAUCUGGCUGGGAAAGUUAAAAGACCUAAAUCAUUACAAUCCACUGUAGAUGCUUCCAUAUAGAUGGAUCUCGGGGUAAACCAAGGCCUCAACAGAGGAUUGAGCAUCA

target: T1, UNK ZnF1-3; experiment: nsRBNS (natural sequence RNA bind-n-seq); RBNS binding buffer (assumed for nsRBNS): 25 mM Tris pH 7.5, 150 mM KCl, 3 mM MgCl2, 0.01% Triton X-100, 500 ug/ml BSA, 20 U/ml SUPERase-In, 4 C; UNK is unkempt and MSI1 is Musashi-1; names of the RNAs are library labels; protein concentration not given here; high values mean tight binding

| Binder | binding signal [enrichment R] |
| --- | --- |
| B1 | 0.527 |
| B2 | 1.3 |
| B3 | 0.963 |
| B4 | 0.903 |
| B5 | 1.32 |
| B6 | 1.11 |
| B7 | 0.819 |
| B8 | 1.18 |
| B9 | 0.832 |
| B10 | 0.473 |
| B11 | 1.23 |
| B12 | 0.463 |
| B13 | 1.09 |
| B14 | 0.997 |
| B15 | 0.662 |
| B16 | 1.3 |
| B17 | 1.47 |
| B18 | 0.629 |
| B19 | 0.645 |
| B20 | 0.704 |
| B21 | 0.948 |
| B22 | 1.02 |
